# In article PMC12040169 (PLOS Biology, 2025):
# The other results are listed elsewhere or left out.
# System: T1, C. trachomatis L2/434/Bu expressing GFP (CTL2-GFP)
# T1 construct: L2/434/Bu GFP intracellular growth in HeLa cells
# Design: species or system HeLa; C. trachomatis total inclusion area by high-content imaging, normalised to DMSO
# Conditions: total inclusion area; 28.5 h, 10 µM; inhibitor
# Summary of the method: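 Following bulk GFP and resorufin fluorescence reads, infected cells were fixed, Hoechst-stained and imaged on a high-content platform. Inclusion total area and number per well served as growth proxies; nuclei counts indicated host viability. MICs were derived as for the fluorescence assay.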
row,SMILES,% of control remaining
1,Clc1ccccc1-c1nccnc1NCc1cccs1 [CBK037362],127.099
2,Cc1cc(Cl)cc(Cl)c1S(=O)(=O)Nc1nc2c(s1)C(=O)CC(C)(C)C2 [CBK200034],96.4944
3,Cc1nc(CCC(=O)N2Cc3cnn(Cc4ccc(F)cc4)c3C2)n[nH]1 [CBK306993],78.2766
4,COc1ccccc1NC(=O)c1sc2ncn(CC(=O)NC3CCCCC3)c(=O)c2c1C [CBK265788],106.435
5,Cc1cc(F)c(S(N)(=O)=O)cc1NC(=O)c1ccc(CN2CCOCC2)o1 [CBK059376C],104.545
6,CC(=O)Nc1ccc(Nc2cc(-c3ccc(CC(C)C)cc3)ncn2)cc1 [CBK090723],125.255
7,CC(C)Cn1cncc1CNC(=O)Nc1ccc2c(cnn2C)c1 [CBK307405],94.9533
8,NC1CCC(Nc2cncc(-c3ccc(F)c(Cl)c3)n2)CC1 (centres unmarked) [CBK037893],60.5491
9,O=C(Cc1ccsc1)N1C[C@@H]2CCCCN(CC3CC3)[C@@H]2C1 [CBK285507],86.0386
10,COc1cc(CN2CCCCC2CO)c([N+](=O)[O-])cc1OC (centres unmarked) [CBK261730],101.594
11,COc1ccc(CCN(CCc2ccccc2)CC(O)COc2cccc3c2CCCC3)cc1 (centres unmarked) [CBK024506T],38.9567
12,Cc1ccn2c(NS(=O)(=O)c3ccc(CCC(=O)O)cc3)c(-c3cccs3)nc2c1 [CBK297480],68.9047
13,O=[N+]([O-])c1ccc(CN2C[C@H](O)C[C@H]2c2nc(-c3ccccc3)no2)cc1 [CBK288833],96.8096
14,Cc1cc(C)nc(NC2=NC(=O)CC(C(=O)O)N2c2ccc(Cl)cc2Cl)n1 (centres unmarked) [CBK286968],124.022
15,COc1ccc(-c2cc(Nc3ccc(N(C)C)cc3)ncn2)cc1OC [CBK036969],73.4708
16,CC(Oc1ccc(F)cc1)C(=O)Nc1ccc(S(N)(=O)=O)cc1 (centres unmarked) [CBK265506],84.7543
17,COCC(=O)N1CCc2sccc2C1c1ccc(NCc2cccc(OC)c2)cc1 (centres unmarked) [CBK286454],106.896
18,O=C(CN1C(=O)c2ccc([N+](=O)[O-])cc2C1=O)Nc1cc(Cl)ccc1C(=O)O [CBK263472],38.5855
19,COCCNS(=O)(=O)c1cccc2c1CN(C(=O)CC1CCCC1)CC2 [CBK306982],86.1339
20,COc1ccc(S(=O)(=O)N2CCN(C(=O)c3cc(-c4ccncc4)nc4c(C)c(Cl)ccc34)CC2)cc1 [CBK267739],113.408
21,CNC(=O)c1ccc(-c2cc(OC)c(OC)c(OC)c2)nc1NCCOC [CBK105997],114.85
22,COc1ccc(OC)c(CN2CCN(CCCc3ccccc3)CC2)c1 [CBK264304],86.5566
23,CC(C)C[C@@H]1N[C@H](C(=O)NCc2cccnc2)Cc2c[nH]c3cccc1c23 [CBK289418],103.781
24,COc1cccc(NC(=O)c2cnc(-c3ccc(Cl)cc3)c(-c3ccco3)c2)c1OC [CBK037428],115.897
25,Cc1nn(Cc2cccc(C(=O)Nc3ccc(S(=O)(=O)N4CCCCC4)cc3)c2)c(C)c1Cl [CBK265815],94.5246

row,SMILES,% of control remaining
1,CC(=O)Nc1ccc(CNC(=O)CN(C)Cc2cc(C)on2)cc1 [CBK307042],65.0513
2,Cc1[nH]c2ccccc2c1C(c1ccccc1OCC(=O)O)c1c(C)[nH]c2ccccc12 [CBK266038],106.53
3,CN(C)c1ccc(-c2nccnc2NCc2ccc(S(C)(=O)=O)cc2)cc1 [CBK036902],85.3317
4,COc1ccccc1CN(C)C(=O)Nc1ccc(S(N)(=O)=O)cc1 [CBK306026],33.1444
5,Nc1ncc(-c2ccc(C(=O)N3CCOCC3)cc2)nc1C(=O)NC1CCCCC1 [CBK149160],100.76
6,O=C(NCc1cccc2ccccc12)N1CCCC(CO)C1 (centres unmarked) [CBK156035],99.0247
7,COCCN(CC1CC1)C(=O)NCc1cccc(Cl)c1 [CBK304368],14.8903
8,CCOC(=O)C1=CC2C(=NC3=C2CCCC3)C=C1 (centres unmarked) [CBK009652],67.5427
9,COc1cc(C)nc(NN)n1 [CBK262078],89.1364
10,COc1ccccc1C1(NC(=O)c2c(C)noc2C)CCCC1 [CBK283644],112.511
11,COc1ccc(-c2cc(Nc3ccc(OC)cc3OC)ncn2)cc1 [CBK090763],12.8392
12,NC(=O)COc1ccc(/C=C/c2cc(C(F)(F)F)[nH]c(=O)n2)cc1 [CBK269475],111.066
13,O=C(NCCc1c[nH]cn1)N1CCN(c2ccc(F)cc2)CC1 [CBK156394],99.5285
14,NS(=O)(=O)c1ccc(NC(=S)NNS(=O)(=O)c2ccc(Br)cc2)cc1 [CBK266928],97.1076
15,CCCNC(=O)Cn1cnc2sc(C(=O)Nc3ccc(OCC)cc3)c(C)c2c1=O [CBK071920],97.9372
16,CC(C)(C)c1cc(-c2nc3ccccc3[nH]2)c(O)c(-c2nc3ccccc3[nH]2)c1 [CBK266084],40.9836
17,Cc1ccc(Cl)cc1N1CCN(S(=O)(=O)N(C)C)CC1 [CBK270284],109.671
18,O=S(=O)(Nc1nccs1)c1ccc(Nc2ncnc3ccccc23)cc1 [CBK269487C],11.1795
19,O=C(Cn1c2ccccc2c2ccccc21)Sc1nc2ccccc2[nH]1 [CBK263788],114.466
20,Cc1ccc(S(=O)(=O)NCCC(=O)NO)cc1 [CBK023472],71.5054
21,COc1ccc(C(C)NC(=O)CCn2ccc3ccncc32)cc1 (centres unmarked) [CBK284798],87.0096
22,CN1CCN(c2nccnc2-c2ccco2)CC1 [CBK038050],115.582
23,Cc1ccc(OCC(=O)Nc2cccnc2)c(-n2nc3ccccc3n2)c1 [CBK270281],108.846
24,COc1cc(/C=C2/NC(=O)N(c3ccccc3)C2=O)ccc1OCc1ccc(C(=O)O)cc1 [CBK265139],87.1087
25,COc1ccc(C(NC(=O)C2CCN(C(=O)Oc3ccccc3)CC2)c2ccccc2C)cn1 (centres unmarked) [CBK059715],96.3468
